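Cells were grown in 96-well plates and exposed to each compound for 48 hours at five concentrations; endpoints were interpolated linearly between bracketing concentrations, or set to the highest concentration if not reached. GI50 is the concentration that inhibits growth by half. TGI: concentration producing complete growth inhibition.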
System: NCI-H322M lung
Assay: growth of human tumour cells (NCI), 48 h

In the case of `Cc1ccccc1N1CCN(C2=C(Cl)C(=O)c3ncccc3C2=O)CC1`, the GI50 is reported as 22.3 µM and the TGI is reported as > 100 µM.

In the case of `C#C[C@]1(O)CC[C@H]2[C@@H]3CC=C4c5sc(Nc6ccc(OC)nc6)nc5CC[C@]4(C)[C@H]3CC[C@@]21C`, the GI50 is reported as 2.36 µM and the TGI is reported as 14.9 µM.
